“And” between values parts separate entries of the source, which are not always exact repeats. Equal values may be shown once. In all, about 150,000 compounds went through this assay and about 6,500 (4.3%) were called active. This list was built around the results that the source calls inconclusive (neither active nor inactive); the mix of calls is not that of the screen. Calls come from the whole dose curve; as a rule, active = well fitted inhibition curve with a large enough effect (not every such curve was filed as active); inconclusive = small, poorly fitted or top-dose-only effect, or another doubt; inactive = no such curve, though single readings can be large or run the other way. A potency beside an inconclusive call is a rough fit, not a confirmed value.
What follows are compounds tested against 15-hydroxyprostaglandin dehydrogenase [NAD(+)] (Homo sapiens) (UniProt P15428) (assay: qHTS Assay for Inhibitors of HPGD (15-Hydroxyprostaglandin Dehydrogenase)). Settings: purified HPGD, NADH fluorescence kinetic, PGE2 substrate; activity change, negative = inhibition: hits give low values.
Procedure, shortened: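 NADH formation kinetics: reaction with 30 uM PGE2 and 1 mM NAD+ (final), 20 nM enzyme, Tris-HCl pH 8 with Tween 20, after 15 min compound preincubation at room temperature. Fluorescence change, last versus first of five reads.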
% is set by controls: 0 for no effect and ±100 for the full control effect; potency is the fitted concentration of half-maximal effect; tags give direction and shape of the fitted curve.

Sequence of UniProt P15428 (P15428 whole entry, looked up): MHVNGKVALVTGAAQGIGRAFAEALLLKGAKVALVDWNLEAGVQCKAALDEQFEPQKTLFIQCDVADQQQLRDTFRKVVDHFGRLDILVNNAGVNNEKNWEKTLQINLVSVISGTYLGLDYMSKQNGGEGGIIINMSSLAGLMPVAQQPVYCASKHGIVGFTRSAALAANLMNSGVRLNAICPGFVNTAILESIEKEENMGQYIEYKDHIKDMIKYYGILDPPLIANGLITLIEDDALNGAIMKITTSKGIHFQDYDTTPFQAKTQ

Potency, inconclusive:
O=C(Nc1ccc(Oc2ccccc2)cc1)c1cnc2n(c1=O)CCS2 25.1 µM [inhibitor, partial curve], Cn1cc(CNC(=O)COc2ccc(Cl)cc2Cl)cn1 25.1 µM [inhibitor, single point], CC1CC(C)CN(c2ncc3c(n2)CC(c2ccccc2)CC3=O)C1 (centres undefined) 31.6 µM [inhibitor, partial curve], COc1cccc(-c2cc(C(=O)Nc3ccccc3SC)no2)c1 0.316 µM [inhibitor, full curve], c1coc(CNc2c3c(nc4ncnn24)CCC3)c1 14.1 µM [inhibitor, partial curve], COc1ccc(C2CC(c3ccccc3)=NN2C(=O)COC(=O)c2cccnc2Cl)cc1 (centres undefined) 31.6 µM [inhibitor, partial curve], C=C1C(=O)C23C(O)C1CCC2[C@]12COC3(O)C(O)C1C(C)(C)CC[C@H]2O (some centres undefined) 4.47 µM [inhibitor, partial curve], CCOc1ccc(S(=O)(=O)Nc2ccc(C(=O)N/N=C/c3c(C)nn(-c4ccccc4)c3N3CCCC3)cc2)cc1 28.2 µM [inhibitor, partial curve], COc1cccc2cc(NC(=O)C3CCCCC3)c(=O)oc12 31.6 µM [inhibitor, partial curve], CCCCOC(=O)Nc1cccc(C(=O)OCC)c1 20 µM [inhibitor, partial curve], O=C(N/N=C/c1cccnc1)c1ccc2c(c1)OCCO2 31.6 µM [inhibitor, partial curve], O=C(c1cc2c(s1)-c1ccccc1OC2)N1CCc2ccccc2C1 31.6 µM [inhibitor, partial curve], OCCNc1ncnc2c1c(-c1ccccc1)c(-c1ccccc1)n2Cc1ccco1 25.1 µM [inhibitor, partial curve], CCC(C)c1ccc2oc(-c3ccc(NC(=O)Cn4cnc5c(=O)n(C)c(=O)n(C)c54)cc3)nc2c1 (centres undefined) 31.6 µM [inhibitor, partial curve], Cc1ccccc1NS(=O)(=O)c1cccc(-c2nnc(-c3ccccc3)o2)c1 12.6 µM [inhibitor, partial curve], N#CC1(C#N)C(c2ccccc2)OC23CCCCC2C1(C#N)C(=N)O3 (centres undefined) 35.5 µM [inhibitor, partial curve], COc1cccc(C2CC(c3cccs3)=NN2C(=O)CSc2nc3c(cnn3-c3ccc(F)cc3)c(=O)[nH]2)c1OC (centres undefined) 31.6 µM [inhibitor, partial curve], C(=C\c1nc2ccccc2[nH]1)/c1ccccc1 25.1 µM [inhibitor, partial curve], Cn1c2ccccc2c2cnn(CC(=O)O)c(=O)c21 35.5 µM [inhibitor, single point], CCOC(=O)N1CCN(C(=O)c2ccc3nc(N4CCC(C)CC4)sc3c2)CC1 22.4 µM [inhibitor, partial curve], O=C(CSc1nnnn1C1CC2CCC1C2)Nc1ccnc2ccccc12 (centres undefined) 31.6 µM [inhibitor, partial curve, poor fit], COc1cc(-c2nc(C(F)(F)F)c(OC)o2)cc(OC)c1OC 22.4 µM [inhibitor, partial curve], COc1ccc(CCc2nc(C)ccc2O)cc1 28.2 µM [inhibitor, partial curve] and 20 µM [inhibitor, partial curve], Cc1cnnn1-c1ccc(C(=O)CCl)cc1 39.8 µM [inhibitor, single point], O=C(CCSCc1cccc(Cl)c1)NCCC1=CCCCC1 39.8 µM [inhibitor, single point], CCCCn1c(=O)nc2n(-c3ccccc3)c3ccccc3cc-2c1=O 35.5 µM [inhibitor, partial curve], CCCn1c(-c2ccc(F)cc2)nc2c(N(C)CCN(C)C)nc(C)nc21 28.2 µM [inhibitor, single point], c1cncc(-c2nc3c(ccc4ccccc43)[nH]2)c1 31.6 µM [inhibitor, single point], CCOC(=O)C(C)Sc1nc2c(c(=O)[nH]c(=O)n2C)n1Cc1ccc(Cl)cc1 (centres undefined) 22.4 µM [inhibitor, single point], O=S1(=O)NC2CCCCCN2c2ccc(F)cc21 (centres undefined) 31.6 µM [inhibitor, partial curve], Cc1nc2c(C(=O)NCc3ccc4c(c3)OCO4)cnn2c(C)c1Cc1ccc(F)cc1Cl 28.2 µM [inhibitor, partial curve], O=C(NCCN1CCOCC1)c1cc2c(=O)n3ccccc3nc2n1Cc1ccccc1 28.2 µM [inhibitor, partial curve], CC1CC(C)CN(c2ncnc3c2cnn3-c2ccc(Cl)cc2)C1 (centres undefined) 35.5 µM [inhibitor, single point], c1ccc2c(-c3nn4nnnc4c4ccccc34)cccc2c1 25.1 µM [inhibitor, partial curve], CCOc1cc(NC(=O)c2ccco2)c(OCC)cc1NC(=O)COc1ccccc1 28.2 µM [inhibitor, partial curve], CC(=O)Nc1ccc2[nH]c(C)cc(=O)c2c1 31.6 µM [inhibitor, single point], COc1cc2ccccc2cc1C(=O)O 25.1 µM [inhibitor, partial curve]

Potency, active:
O=C(O)Cc1c[nH]c2ccc(O)cc12 22.4 µM, O=C(CCSCc1ccc(Cl)cc1)NC1CCCC1 17.8 µM, CC(C)Cn1c(-c2csc3c2CCCC3)n[nH]c1=S 28.2 µM, Cn1cccc1/C=C1\SC(=S)N(CC(=O)O)C1=O 28.2 µM, O=C(NC1CC1)c1nc2c(nnn2Cc2ccccc2Cl)c(=O)[nH]1 15.8 µM, O=c1c(-c2ccc3c(c2)OCCO3)coc2cc(O)cc(O)c12 28.2 µM, CC1CCN(C(=O)c2ccc(N(C)S(C)(=O)=O)cc2)CC1 14.1 µM, O=C(NC1CC1)c1ccc2c(c1)ncn2C1CCCC1 14.1 µM, O=C(CSc1cccc[n+]1[O-])c1cc2ccccc2o1 28.2 µM, Cc1ccccc1CSCCC(=O)NCCC1=CCCCC1 12.6 µM, Cc1ccc(S(=O)(=O)Nc2nc3ccc(S(=O)(=O)N4CCCC4)cc3s2)cc1 12.6 µM, CCc1nnc(NS(=O)(=O)c2ccc(N=Cc3c(C)[nH]n(-c4cccc(Cl)c4)c3=O)cc2)s1 12.6 µM, CC(C)OC(=O)CSc1nnc(-c2ccc(C(C)(C)C)cc2)n1N 17.8 µM, CS/C(=N\S(=O)(=O)c1cccs1)NC(=O)CSc1nc2ccccc2s1 25.1 µM, Cc1cc(=O)[nH]c(SCc2nc3ccccc3n2Cc2ccccc2)n1 28.2 µM, Cc1ccc2c(c1C)NC(C(=O)O)C1CC=CC21 (centres undefined) 10 µM, O=C(Cn1cccc1)NCc1cccs1 20 µM

Activity change, negative = inhibition, inactive:
COc1cccc2c(=O)n(CC(=O)N3CCCCC3)ccc12 -27.4%, Clc1nnc(N/N=C/c2ccccc2)c2ccccc12 -12.9%, CCOC(=O)N1CCN(C(=O)c2ccc3c(c2)NC(=O)C(N2CCOCC2)S3)CC1 (centres undefined) 0.311%, CCCCC1=CC2=C(c3ccco3)C(=O)C(C)(OC(=O)c3ccc(OC)cc3)C(=O)C2=CN1c1ccccc1 (centres undefined) -8.21%, COC(=O)N1CCC2(CC1)CCN(c1ccncc1)CC2 -0.415%, CSCCC(NC(=O)c1ccccc1)C(=O)Nc1ccc(NC(C)=O)cc1 (centres undefined) -6.04%, CCOc1ccc(NC(=O)CSCc2cnn(-c3ccccc3)c2-n2cccc2)cc1 -8%, CC(C)(C)NS(=O)(=O)c1cnc(Cl)c(Cl)c1 -5.38%, Cc1sc2ncnc(SC(C)C(=O)N3c4ccccc4Sc4ccccc43)c2c1C (centres undefined) -16.3%, COc1ccc2c(c1)C1NC(=S)NC(C)(O2)C1C(=O)Nc1ccccc1C (centres undefined) -18.1%, CCNc1nc(C)nc2c1oc1ccccc12 -1.92%, CC(C)CC(=O)NC(=S)Nc1ccccn1 -27.7%, O=C(Nc1ccc(Cl)c(Cl)c1)Nc1nnc(CSc2ccccc2)s1 -3.63%, CC(C)NC(=O)CSc1nc2ccccc2n1-c1ccccc1 -9.5%, O=C(O)C(c1ccccc1)N1CCCC1 (centres undefined) -11.8%, COCC1=C2c3ccccc3[C@H](C[N+](=O)[O-])C(C(=O)OC)(C(=O)OC)CC2C2C(=O)N(c3ccccc3)C(=O)C2C1 (some centres undefined) -6.93% and -10.4%, COc1ccc(C(=O)Nc2cc(C)on2)cc1 -5.97%, COc1cc(C(=O)OCc2cc3ccccc3[nH]c2=O)cc(OC)c1OC -26.3%, COc1ccc(N2CCN(CCNC(=O)Nc3ccc(Cl)cc3)CC2)cc1 -14.1%, COc1ccc2cc3c(N)nn(C(=O)c4ccc(Cl)c([N+](=O)[O-])c4)c3nc2c1 -11.3%

Reference: PubChem BioAssay AID894 (National Center for Advancing Translational Sciences (NCATS), 2007)
